# Results from the supplement of paper PMC8728848.
# This is one part of the list.
# B1: Clec49 (Caenorhabditis elegans) (protein)
# chain: MTRLTLLLFGLLGAATAQTCNTGGIYNEQFNRCYQYFTAPAQFSFAEQQCNLLGGHLASVQNGQENALLQSNAANSFKRSNYSDYWIGATDLETSGTWKWTDPSVTFDYSNWQLGEPQSGSDCAIQDKGDGTWSAIGCTSYRPYVCVTPVIMTATCPPITTPIPTTCPTPAPCPIKQCVPSCDQGWTYFSPTDFCYRVYHGEKFNDAEASCVLLGGHLASIHSLTENTFVNNIASCGIKEGKYEHLAWIGMRKVGQDWVWTDGTPSDYFNWAPKQPDNPKKELCVQTAPDLSHDKWYENWNNLECNEVMRAYICKKASIHN
# Key:
# Experiment in all cases: glycan array binding signal (z-score within array); higher = stronger binding
# Details in all cases: glycan notation: IUPAC condensed, linker removed
# [1] = target: Gal(b1-3)GlcNAc(b1-3)Gal(b1-4)GlcNAc(b1-2)[Gal(b1-3)GlcNAc(b1-3)Gal(b1-4)GlcNAc(b1-6)]Man(a1-6)[Gal(b1-3)GlcNAc(b1-3)Gal(b1-4)GlcNAc(b1-2)Man(a1-3)]Man(b1-4)GlcNAc(b1-4)[Fuc(a1-6)]GlcNAc
# Outline: (§1)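 Glycan array data came from 3228 arrays in the Consortium for Functional Glycomics database, and only arrays with an available protein sequence were kept. Glycan names were put into IUPAC-condensed notation, and columns mapping to the same glycan were averaged. The binding signal is a within-array Z-score, averaged across arrays of one protein sequence run at different concentrations or buffers and across linkers. A negative Z-score can be read as non-binding.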
# [2] = target: Gal(b1-3)GlcNAc(b1-3)Gal(b1-4)GlcNAc(b1-3)Gal(b1-4)GlcNAc(b1-2)[Gal(b1-3)GlcNAc(b1-3)Gal(b1-4)GlcNAc(b1-3)Gal(b1-4)GlcNAc(b1-6)]Man(a1-6)[Gal(b1-3)GlcNAc(b1-3)Gal(b1-4)GlcNAc(b1-3)Gal(b1-4)GlcNAc(b1-2)Man(a1-3)]Man(b1-4)GlcNAc(b1-4)[Fuc(a1-6)]GlcNAc
# Outline: as §1
# [3] = target: Gal(b1-3)GlcNAc(b1-3)Gal(b1-4)GlcNAc(b1-6)[Gal(b1-3)GlcNAc(b1-3)]Gal(b1-4)Glc
# Outline: as §1
# [4] = target: Gal(b1-3)GlcNAc(b1-3)Gal(b1-4)[Fuc(a1-3)]GlcNAc
# Outline: as §1
# [5] = target: Gal(b1-3)GlcNAc(b1-3)Gal(b1-4)[Fuc(a1-3)]GlcNAc(b1-6)[Gal(b1-3)GlcNAc(b1-3)]Gal(b1-4)Glc
# Outline: as §1
# [6] = target: Gal(b1-3)GlcNAc(b1-3)GalNAc
# Outline: as §1
# [7] = target: Gal(b1-3)GlcNAc(b1-6)Gal(b1-4)GlcNAc
# Outline: as §1
# [8] = target: Gal(b1-3)GlcNAc(b1-6)GalNAc
# Outline: as §1
# [9] = target: Gal(b1-3)GlcNAc(b1-6)[Gal(b1-3)]GalNAc
# Outline: as §1
# Gal(b1-3)GlcNAc6S = target: Gal(b1-3)GlcNAc6S
# Outline: as §1
# [10] = target: Gal(b1-3)[Fuc(a1-4)]GlcNAc
# Outline: as §1
# [11] = target: Gal(b1-3)[Fuc(a1-4)]GlcNAc(b1-2)Man
# Outline: as §1
# [12] = target: Gal(b1-3)[Fuc(a1-4)]GlcNAc(b1-2)Man(a1-3)[Gal(b1-3)[Fuc(a1-4)]GlcNAc(b1-2)Man(a1-6)]Man(b1-4)GlcNAc(b1-4)[Fuc(a1-6)]GlcNAc
# Outline: as §1
# [13] = target: Gal(b1-3)[Fuc(a1-4)]GlcNAc(b1-3)Gal(b1-3)[Fuc(a1-4)]GlcNAc
# Outline: as §1
# [14] = target: Gal(b1-3)[Fuc(a1-4)]GlcNAc(b1-3)Gal(b1-4)[Fuc(a1-3)]GlcNAc
# Outline: as §1
# [15] = target: Gal(b1-3)[Fuc(a1-4)]GlcNAc(b1-6)GalNAc
# Outline: as §1
# [16] = target: Gal(b1-3)[GlcNAc(b1-6)]GalNAc
# Outline: as §1
# [17] = target: Gal(b1-3)[Neu5Ac(a2-6)]GalNAc
# Outline: as §1
# [18] = target: Gal(b1-3)[Neu5Ac(a2-6)]GlcNAc(b1-4)Gal(b1-4)Glc
# Outline: as §1
# [19] = target: Gal(b1-3)[Neu5Ac(b2-6)]GalNAc
# Outline: as §1
# Gal(b1-4)Gal = target: Gal(b1-4)Gal
# Outline: as §1
# [20] = target: Gal(b1-4)GalNAc(a1-3)[Fuc(a1-2)]Gal(b1-4)GlcNAc
# Outline: as §1
# [21] = target: Gal(b1-4)GalNAc(b1-3)[Fuc(a1-2)]Gal(b1-4)GlcNAc
# Outline: as §1
# Gal(b1-4)Glc = target: Gal(b1-4)Glc
# Outline: as §1
# Gal(b1-4)Glc6S = target: Gal(b1-4)Glc6S
# Outline: as §1
# Gal(b1-4)GlcNAc = target: Gal(b1-4)GlcNAc
# Outline: as §1
# [22] = target: Gal(b1-4)GlcNAc(a1-6)Gal(b1-4)GlcNAc
# Outline: as §1
# Gal(b1-4)GlcNAc(b1-2)Man = target: Gal(b1-4)GlcNAc(b1-2)Man
# Outline: as §1
# [23] = target: Gal(b1-4)GlcNAc(b1-2)Man(a1-3)Man(b1-4)GlcNAc(b1-4)GlcNAc
# Outline: as §1
# [24] = target: Gal(b1-4)GlcNAc(b1-2)Man(a1-3)[Gal(b1-4)GlcNAc(b1-2)Man(a1-6)]Man(b1-4)GlcNAc(b1-4)GlcNAc
# Outline: as §1
# [25] = target: Gal(b1-4)GlcNAc(b1-2)Man(a1-3)[Gal(b1-4)GlcNAc(b1-2)Man(a1-6)]Man(b1-4)GlcNAc(b1-4)[Fuc(a1-6)]GlcNAc
# Outline: as §1
# [26] = target: Gal(b1-4)GlcNAc(b1-2)Man(a1-3)[Gal(b1-4)GlcNAc(b1-2)Man(a1-6)][Gal(b1-4)GlcNAc(b1-4)]Man(b1-4)GlcNAc(b1-4)[Fuc(a1-6)]GlcNAc
# Outline: as §1
# [27] = target: Gal(b1-4)GlcNAc(b1-2)Man(a1-3)[Gal(b1-4)GlcNAc(b1-2)Man(a1-6)][GlcNAc(b1-4)]Man(b1-4)GlcNAc(b1-4)[Fuc(a1-6)]GlcNAc
# Outline: as §1
# [28] = target: Gal(b1-4)GlcNAc(b1-2)Man(a1-3)[GlcNAc(b1-2)Man(a1-6)]Man(b1-4)GlcNAc(b1-4)GlcNAc
# Outline: as §1
# [29] = target: Gal(b1-4)GlcNAc(b1-2)Man(a1-3)[GlcNAc(b1-4)][Gal(b1-4)GlcNAc(b1-2)Man(a1-6)]Man(b1-4)GlcNAc(b1-4)GlcNAc
# Outline: as §1
# [30] = target: Gal(b1-4)GlcNAc(b1-2)Man(a1-3)[Man(a1-6)]Man(b1-4)GlcNAc(b1-4)GlcNAc
# Outline: as §1
# [31] = target: Gal(b1-4)GlcNAc(b1-2)Man(a1-6)Man(b1-4)GlcNAc(b1-4)GlcNAc
# Outline: as §1
# [32] = target: Gal(b1-4)GlcNAc(b1-2)Man(a1-6)[GlcNAc(b1-2)Man(a1-3)]Man(b1-4)GlcNAc(b1-4)GlcNAc
# Outline: as §1
binder,measurement,setting,value
B1,glycan array binding signal (z-score),[1],0.996
same,glycan array binding signal (z-score),[2],-0.063
same,glycan array binding signal (z-score),[3],0.535
same,glycan array binding signal (z-score),[4],0.103
same,glycan array binding signal (z-score),[5],0.869
same,glycan array binding signal (z-score),[6],-0.445
same,glycan array binding signal (z-score),[7],0.07
same,glycan array binding signal (z-score),[8],0.153
same,glycan array binding signal (z-score),[9],0.316
same,glycan array binding signal (z-score),Gal(b1-3)GlcNAc6S,-0.351
same,glycan array binding signal (z-score),[10],-0.6
same,glycan array binding signal (z-score),[11],0.1
same,glycan array binding signal (z-score),[12],-0.736
same,glycan array binding signal (z-score),[13],-0.576
same,glycan array binding signal (z-score),[14],-0.021
same,glycan array binding signal (z-score),[15],0.487
same,glycan array binding signal (z-score),[16],-0.227
same,glycan array binding signal (z-score),[17],0.301
same,glycan array binding signal (z-score),[18],-0.967
same,glycan array binding signal (z-score),[19],0.371
same,glycan array binding signal (z-score),Gal(b1-4)Gal,-0.065
same,glycan array binding signal (z-score),[20],-0.949
same,glycan array binding signal (z-score),[21],-0.191
same,glycan array binding signal (z-score),Gal(b1-4)Glc,0.227
same,glycan array binding signal (z-score),Gal(b1-4)Glc6S,-0.019
same,glycan array binding signal (z-score),Gal(b1-4)GlcNAc,-0.358
same,glycan array binding signal (z-score),[22],-0.188
same,glycan array binding signal (z-score),Gal(b1-4)GlcNAc(b1-2)Man,0.329
same,glycan array binding signal (z-score),[23],-0.227
same,glycan array binding signal (z-score),[24],0.461
same,glycan array binding signal (z-score),[25],0.833
same,glycan array binding signal (z-score),[26],-0.227
same,glycan array binding signal (z-score),[27],-0.553
same,glycan array binding signal (z-score),[28],0.394
same,glycan array binding signal (z-score),[29],-0.305
same,glycan array binding signal (z-score),[30],-0.267
same,glycan array binding signal (z-score),[31],0.253
same,glycan array binding signal (z-score),[32],-0.21
